Over roughly 33,000 sequences, “E-score (-0.5 to 0.5)” has its median near -0.054; the highest 2% begin near 0.39. Some of the results follow.
The sequences below were run against Ylr278c (UniProt Q05854) (assay: PBM E-score (8-mer binding enrichment) (E-score (-0.5 to 0.5)); higher = stronger / more preferred TF binding; most listed sequences are background and not binding sites). Details: protein concentration: 200 nM; construct: GST-DNA-binding domain.
How it was run: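 Using PURExpress in vitro transcription/translation, GST-tagged yeast transcription factors were made in full-length or DNA-binding-domain form. These were applied at about 100-200 nM to double-stranded universal all-10-mer Agilent arrays, and bound protein was detected with fluorescent anti-GST. Scans were normalised with masliner before the Universal PBM Analysis Suite assigned E-scores to ungapped eight-base words pooled with their reverse complements.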

| Sequence | PBM E-score |
| --- | --- |
| ACCGTGGC | -0.184 |
| ATGATGAC | -0.104 |
| AATCAAAG | -0.158 |
| CTCAGCAA | -0.164 |
| AACACATG | -0.246 |
| CAGGGCTA | -0.231 |
| AGTCTATA | -0.284 |
| AATTAAAG | -0.0487 |
| GACGGCGA | 0.111 |
| ACATTCCG | 0.332 |
| AACGAAGT | -0.347 |
| AAGCGAAA | -0.0249 |
| AGAACGCG | 0.186 |
| CCAGGAAA | -0.12 |
| CGCGCGAA | 0.145 |
| ACCATCTG | -0.1 |
| CCTTCCTA | -0.338 |
| CCACTGTC | -0.271 |
| AGTTAAAG | -0.276 |
| CGCTTCTA | -0.0149 |
| TGCTAGCA | 0.0239 |
| GCACACTA | -0.103 |
| GCGTTTAA | -0.0621 |
| CCGCCTTC | 0.204 |
| AAGTGCGA | 0.0887 |

| Sequence | PBM E-score |
| --- | --- |
| CCCGAAGG | 0.177 |
| ATGACTAC | -0.172 |
| CTAAGCGA | -0.114 |
| CCAGTAAG | -0.207 |
| GCTCCTAC | 0.00447 |
| GCGCAGCA | -0.0173 |
| CATGTCGC | -0.0755 |
| AGCTAGGC | 0.0766 |
| ACGTCCCA | -0.218 |
| ACTGCGAA | -0.0798 |
| AGGGTAGA | -0.235 |
| GGTACGGA | 0.263 |
| AGCCCCCG | 0.157 |
| ACAAGATA | -0.123 |
| CGCCAACG | 0.0307 |
| GGACGGAA | 0.337 |
| GCAGCGAC | -0.0931 |
| GGTTGCCA | 0.138 |
| ACTGGCGC | -0.0605 |
| CCCTTCTA | -0.199 |
| GGCACAGA | 0.101 |
| AGCCGCCT | 0.0327 |
| CGCGGACG | 0.326 |
| ACTCTGAT | 0.0218 |
| ACGCTTTG | -0.0892 |

| Sequence | PBM E-score |
| --- | --- |
| GCTATCCC | 0.0437 |
| CAGCCTAG | -0.25 |
| AAGCAAAT | -0.19 |
| ATCACGAG | -0.136 |
| AGGACCAG | -0.0204 |
| AGCGTAAG | -0.00325 |
| ATTGAACG | -0.114 |
| ATCGTTGC | -0.191 |
| CTGGTAAA | -0.036 |
| CCACCTCG | -0.00294 |
| ACTGCCTA | -0.365 |
| AAAAGTAA | -0.0401 |
| CCGAAAGG | 0.314 |
| CACGACGG | 0.204 |
| CGATAGCC | 0.127 |
| AGGTGAAT | 0.152 |
| ACATCCAG | -0.317 |
| TGTATGAA | 0.0329 |
| AACTTCAT | -0.114 |
| GGGATTCA | 0.0886 |
| CCTGTTCG | 0.0051 |
| CTCGTATA | -0.14 |
| AGAGAAAC | -0.148 |
| CCAATGCA | -0.14 |
| GTAAACGA | -0.0798 |

| Sequence | PBM E-score |
| --- | --- |
| AACCGGCC | 0.275 |
| GTGACTGA | -0.222 |
| GCGAGAAA | 0.123 |
| CTGGGGCA | -0.25 |
| TAACGTCA | -0.26 |
| AGAACCCC | 0.191 |
| AAGGCGCA | -0.042 |
| CAATGAGG | -0.263 |
| AGTGCTAT | -0.239 |
| CAATAGGC | 0.0723 |
| CTGTATGC | -0.106 |
| GAAAGATC | 0.0432 |
| GGGGGGAA | -0.0902 |
| GAGGGGCA | -0.204 |
| GGAAGGTA | 0.00123 |
| GAGTAACC | 0.119 |
| ACCCTTTC | -0.115 |
| ACAGACGC | -0.0922 |
| GAACGTGA | 0.0532 |
| GCCTCGTA | -0.116 |
| CACCTGCA | -0.17 |
| GTAGCCGA | -0.0602 |
| CATGCTAA | -0.33 |
| GACGCTCC | 0.208 |
| CGTCGGAG | 0.441 |

| Sequence | PBM E-score |
| --- | --- |
| GGGCGCCC | 0.267 |
| CACGTCTC | 0.0617 |
| ATAAACCG | 0.189 |
| CTAATGCA | -0.096 |
| GCCTGAAA | 0.0892 |
| GCGCACCC | 0.117 |
| ACACACGG | 0.254 |
| AACCGACC | 0.0753 |
| ATGCTGAG | -0.171 |
| CAACGCAG | -0.139 |
| GAATAACC | 0.018 |
| AATAAGCC | 0.00863 |
| ACTGGTCT | -0.161 |
| CGCAGTTA | 0.2 |
| CCGCCTGA | 0.241 |
| ATGAGCAT | -0.117 |
| CAGGTTTA | 0.105 |
| ATGAGAAA | -0.118 |
| TAAGACGA | -0.289 |
| AGCGATGA | 0.0555 |
| ACTAGACT | -0.254 |
| AGTGTCAA | -0.143 |
| CAGATATC | -0.00483 |
| ACGGTGCC | 0.111 |
| ACAAAGTC | 0.0527 |

| Sequence | PBM E-score |
| --- | --- |
| CCGCTGAC | 0.192 |
| AGTGAAAA | 0.114 |
| ACCTAGGT | -0.257 |
| CCCGCACG | 0.225 |
| GAATCACC | -0.123 |
| GTATCGCA | -0.0427 |
| CGGGACCG | 0.339 |
| TCAATCGA | -0.136 |
| ATCCCAAA | -0.0503 |
| CAGAGTGG | -0.286 |
| AGAAACAG | -0.123 |
| AGACGCCT | -0.27 |
| GATTACCA | -0.0593 |
| CATTAGGG | -0.263 |
| AAAGTAGT | -0.295 |
| ACGTAGTG | -0.115 |
| ACATCACA | -0.0756 |
| GCGTCAGA | -0.179 |
| GCCGATTA | 0.224 |
| AACTACTA | 0.116 |
| CCAGGCCC | -0.117 |
| ATTGCCCC | -0.0217 |
| CCTACTAC | -0.0594 |
| GGCCTACC | 0.0107 |
| TAACTGGA | -0.131 |

| Sequence | PBM E-score |
| --- | --- |
| GCCGTGCA | 0.0166 |
| CCTCGTAC | 0.0935 |
| AACTTTTA | -0.11 |
| ATGAGTAC | -0.176 |
| CCTAGGTC | -0.214 |
| CTGTCAAG | -0.178 |
| GCTTTACC | 0.0949 |
| CCTCAAAA | -0.00965 |
| CTGACAAG | -0.153 |
| GGAACCCC | 0.259 |
| AAGACGCC | 0.024 |
| CTAATATA | -0.212 |
| AGGCCAGG | -0.0812 |
| ATCAAAAG | 0.0443 |
| AGTAAGCC | 0.00509 |
| AAGGTCTG | -0.128 |
| ATTTCGCA | 0.151 |
| CCAATTCG | -0.107 |
| CGTAAGTA | 0.102 |
| AGATAAGC | -0.209 |
| CCCAAAGG | -0.115 |
| CTCACATC | -0.188 |
| AGGGAGAA | -0.124 |
| CAACCAAA | 0.0454 |
| AACTCTAC | -0.263 |

| Sequence | PBM E-score |
| --- | --- |
| ACAAGTAG | -0.172 |
| CCTCTTAA | -0.00018 |
| CATTGCTA | -0.0953 |
| CCACTACA | -0.0842 |
| GTGCAATA | -0.0843 |
| AAATGCGC | 0.254 |
| GACCCATA | 0.0506 |
| GATAATGA | -0.0199 |
| AACCGTTA | -0.283 |
| AGGTGTCC | -0.0636 |
| AAGAAAGT | 0.00752 |
| GGTCATCA | -0.189 |
| ACTCACGC | -0.229 |
| CATCGTAA | -0.0485 |
| ACTCTATA | 0.0902 |
| CATATATA | -0.00984 |
| GAGCTACA | -0.0119 |
| AGGGACCC | -0.149 |
| CCTGAGAC | -0.178 |
| ACGATCGG | 0.334 |
| CGCCGTTC | 0.153 |
| TCCTTTCA | -0.127 |
| AGTAAAGC | -0.0131 |
| AACCGCCG | 0.3 |
| AACAGGAC | -0.0455 |

| Sequence | PBM E-score |
| --- | --- |
| AGACAATG | -0.115 |
| CAAGATAA | 0.0506 |
| ATATGTAA | -0.187 |
| ATAATGGG | -0.12 |
| CGGACGAC | 0.289 |
| ACTCCGTA | 0.443 |
| AGACCAGC | -0.183 |
| ACGGAACT | 0.321 |
| AGAGATCA | -0.309 |
| CTGTAATC | -0.16 |
| ATCGAAAT | -0.128 |
| CAAGTTCG | -0.0793 |
| ATCGACTA | -0.229 |
| TATCAGCA | -0.0153 |
| CAAGATGA | -0.292 |
| ACCCAAGG | -0.0719 |
| TAACGGGA | 0.117 |
| GCTCCGAC | 0.374 |
| ATTCTGCA | -0.0806 |
